In PubChem BioAssay AID1030 (National Center for Advancing Translational Sciences (NCATS), 2008):
In all, about 220,000 compounds went through this assay and about 16,000 (7.3%) were called active. The inconclusive results got no clear call from the source; some entries with a clear call stand among them for comparison. Calls follow the shape of the dose curve; as a rule, active = well fitted inhibition curve with a large enough effect (not every such curve was filed as active); inconclusive = small, poorly fitted or top-dose-only effect, or another doubt; inactive = no such curve, though single readings can be large or run the other way. Potencies of inconclusive entries are doubtful fits and often do not repeat.

What follows are compounds tested against Aldehyde dehydrogenase 1A1 (Homo sapiens) (UniProt P00352) (assay: qHTS Assay for Inhibitors of Aldehyde Dehydrogenase 1 (ALDH1A1)). Conditions: Purified ALDH1A1, NADH fluorescence, propionaldehyde substrate; series mostly up to 75.3 µM; activity, negative = inhibition: at the top concentration.
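For activity, negative = inhibition in this document: plate controls were no enzyme wells and a reference inhibitor.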
Potency is read from the fitted curve at half-maximal effect; tags tell the direction and shape of the fitted curve.

Sequence of UniProt P00352 (P00352 whole entry, looked up): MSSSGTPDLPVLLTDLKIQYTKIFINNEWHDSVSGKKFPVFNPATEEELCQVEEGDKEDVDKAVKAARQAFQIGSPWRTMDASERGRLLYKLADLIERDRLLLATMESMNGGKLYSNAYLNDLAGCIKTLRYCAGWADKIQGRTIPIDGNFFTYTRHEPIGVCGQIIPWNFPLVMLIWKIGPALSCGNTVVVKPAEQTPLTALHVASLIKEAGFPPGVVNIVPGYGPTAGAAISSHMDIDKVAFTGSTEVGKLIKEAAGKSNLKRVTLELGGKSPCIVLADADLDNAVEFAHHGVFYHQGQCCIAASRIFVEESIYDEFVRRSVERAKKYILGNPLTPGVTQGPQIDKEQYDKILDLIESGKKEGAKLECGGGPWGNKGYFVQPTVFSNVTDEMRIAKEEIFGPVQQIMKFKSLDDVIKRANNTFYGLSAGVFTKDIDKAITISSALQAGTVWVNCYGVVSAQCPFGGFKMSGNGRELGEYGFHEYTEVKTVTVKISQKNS

Potency, inconclusive:
COc1ccc(/C=C/c2nnc(NC(=O)COc3ccc(C)cc3)s2)cc1 25.1 µM [inhibitor, partial curve]
N#Cc1c(N)nc2c(c1-c1ccccc1)CCC2 20 µM [inhibitor, partial curve]
Nc1ccc(O)cc1C(=O)OCC(=O)c1ccc(C2CCCCC2)cc1 39.8 µM [inhibitor, single point]
CN(C)CCNC(=O)c1c(O)c2c([nH]c1=O)CCCC2 22.4 µM [inhibitor, partial curve]
CCOC(=O)c1cnn(-c2ccc(C(C)C)cc2)c1NC(=O)C1CCC1 12.6 µM [inhibitor, partial curve]
Cc1cc2[nH]ncc2cc1NC(=S)NC(=O)c1ccccc1 28.2 µM [inhibitor, single point]
CC(=O)Nc1ccc2oc(-c3cc(F)c(F)cc3Cl)nc2c1 11.2 µM [inhibitor, partial curve]
C=C(C)CNC(=S)N/N=C(\C)c1ccc(Cl)s1 14.1 µM [inhibitor, partial curve]
Cc1ccc(CC2S/C(=C(/C#N)C(=O)N3CCOCC3)N(c3ccccc3)C2=O)cc1 (configuration not stated) 44.7 µM [inhibitor, single point]
COc1cc(-c2noc(-c3cccs3)n2)cc(OC)c1OC 25.1 µM [inhibitor, single point]
Cc1nn(-c2ccc(Cl)cc2)c2sc(C(=O)N3CCN(c4ccccn4)CC3)cc12 22.4 µM [inhibitor, partial curve]
COC(=O)C1=C(N)OC2=C(C(=O)CC(C)(C)C2)C1c1ccoc1 (configuration not stated) 44.7 µM [inhibitor, single point]
CCCC(=O)Nc1sc2c(c1C(=O)Nc1ccccn1)CCCC2 39.8 µM [inhibitor, single point]
C=C(NC(=O)C(=C)NC(=O)c1csc(C2=NC3c4csc(n4)C4NC(=O)c5csc(n5)C(C(C)(O)C(C)O)NC(=O)C5CSC(=N5)C(=CC)NC(=O)C(C(C)O)NC(=O)c5csc(n5)C3(CC2)NC(=O)C(C)NC(=O)C(=C)NC(=O)C(C)NC(=O)C(C(C)CC)NC2C=Cc3c(C(C)O)cc(nc3C2O)C(=O)OC4C)n1)C(N)=O (configuration not stated) 39.8 µM [inhibitor, single point]
COc1ccc(-n2cnc3scc(-c4ccc(OC)c(OC)c4)c3c2=O)cc1 3.55 µM [inhibitor, single point]
CCOC(=O)C1(CCCc2ccccc2)CCN(Cc2ccn[nH]2)CC1 25.1 µM [inhibitor, partial curve]
CCOc1cc(/C=C/c2nc3ccccc3s2)ccc1OCC(=O)N1CCOCC1 39.8 µM [inhibitor, single point]
O=[N+]([O-])c1ccc(/C=N/NC(=S)Nc2ccccc2F)o1 39.8 µM [inhibitor, single point]
O=C(NC(=S)Nc1cccc(-c2ccc(CO)o2)c1)c1cccs1 28.2 µM [inhibitor, single point]
Nc1ccc(-n2nncc2-c2ccco2)cc1 39.8 µM [inhibitor, single point]
O=C(NCC1c2ccccc2CCN1C(=O)CN1C(=O)c2ccccc2C1=O)C1CCCCC1 (configuration not stated) 14.1 µM [inhibitor, single point]
CCOc1ccccc1C1C(C(=O)OC)=CN(C)C=C1C(=O)OC 28.2 µM [inhibitor, partial curve]
Cc1cccc2cc(CN(Cc3cccs3)C(=S)NCc3ccco3)c(=O)[nH]c12 28.2 µM [inhibitor, partial curve]
CCCOC(=O)c1c(-c2ccc(C)cc2C)csc1NC(=O)C1C2CCC(O2)C1C(=O)O (configuration not stated) 28.2 µM [inhibitor, single point]
CN1CCN(c2oc(-c3cccs3)nc2S(=O)(=O)c2ccccc2)CC1 39.8 µM [inhibitor, single point]
N#CC1=C(N)N2C(=C(C#N)C13CCN(Cc1ccccc1)CC3)Nc1ccccc12 39.8 µM [inhibitor, single point]
Cc1cc[n+]2cc(-c3cccc([N+](=O)[O-])c3)c(-c3cccc([N+](=O)[O-])c3)cc2c1 35.5 µM [inhibitor, single point]
CCC1Oc2ccccc2N(CC(=O)NCCCN2CCN(Cc3ccccc3)CC2)C1=O (configuration not stated) 39.8 µM [inhibitor, single point]
CCOC(=O)C(C)On1c(-c2ccc(Cl)cc2)nc2ccc([N+](=O)[O-])cc21 (configuration not stated) 31.6 µM [inhibitor, single point]
Cc1ccc(S(=O)(=O)CCC(=O)OCc2ccc(Cl)c(Cl)c2)cc1 39.8 µM [inhibitor, single point]
Cc1cccc(N2CCN(C(=S)c3ccc(-c4ccccc4[N+](=O)[O-])o3)CC2)c1 22.4 µM [inhibitor, partial curve]
COc1[nH]c(/N=C/c2ccccc2)c(C#N)c1C#N 39.8 µM [inhibitor, single point]
CS(=O)(=O)N1CCc2cc(NC(=O)c3ccc(Cl)cc3Cl)ccc21 28.2 µM [inhibitor, single point]
C=CCNC(=O)/C(C#N)=C/c1cn(-c2ccccc2)nc1-c1cccs1 17.8 µM [inhibitor, partial curve]
COC(=O)c1cc(C(=O)N(Cc2ccccc2)c2ccccn2)cc([N+](=O)[O-])c1 28.2 µM [inhibitor, single point]
CN(C)c1ccc(N=C/C=C2/N(C)c3ccccc3C2(C)C)cc1 39.8 µM [inhibitor, single point]

Potency, inactive:
CN[C@H](CC(=O)O)C(=O)O

Potency, active:
Cc1cc(NC(=S)N(CCN2CCCCC2)Cc2ccco2)ccc1Cl 7.94 µM
CCCCOc1ccc(C(=O)N/C(=C/C=C/c2ccccc2)C(=O)N2CCOCC2)cc1 25.1 µM
Cc1ccc(C(=O)c2cnc3ccccc3c2-c2ccccc2)cc1 12.6 µM
CCOc1cc(NC2CS(=O)(=O)CC2O)c(OCC)cc1NC(=O)c1ccccc1 (configuration not stated) 12.6 µM
COc1ccccc1N1CCN(C(=O)CSc2nc(-c3ccco3)cc(C(F)(F)F)n2)CC1 7.94 µM
CCOc1ccccc1NC(=S)/C(=C(\[O-])c1ccc2c(c1)OCCO2)[n+]1ccc(CC)cc1 20 µM
COc1ccc(NC(=O)CSc2nnc(Cc3cccn3C)n2-c2ccc(OC)cc2)cc1 14.1 µM
CCCCOC(=O)c1ccc(NC(=S)NC(=O)c2c(Cl)cnn2CC)cc1 3.55 µM
Cc1cc([N+](=O)[O-])ccc1NCc1ccccc1[N+](=O)[O-] 17.8 µM
COc1cc(/C=N/NS(=O)(=O)c2ccc(C)c([N+](=O)[O-])c2)ccc1O 12.6 µM
CC(=O)Nc1ccc2c(c1)ncn2C 35.5 µM
O=C1C(=O)N(CC(=O)N2CCCC2)c2ccccc21 3.55 µM
Oc1ccc(-c2nc(-c3ccc(O)c(O)c3)cs2)cc1 11.2 µM
COc1ccc(-n2c(CNC(=O)c3ccc(S(=O)(=O)N4CCCC4)cc3)n[nH]c2=S)cc1 10 µM
CCCN(CCC)S(=O)(=O)c1cccc(C(=O)Nc2ccc3c(c2)OCO3)c1 3.16 µM
COc1ccc(CCn2c(C)cc(C(=O)CCl)c2C)cc1OC 0.112 µM

activity, negative = inhibition, inactive:
COc1ccc(NS(=O)(=O)c2cc(NC(=O)c3cccc(OCc4c(C)noc4C)c3)ccc2OC)cc1 -9.4%
CCOC(=O)c1c(-c2ccccc2)csc1NC(=O)c1cc2ccccc2oc1=O -1.86%
CCOc1ccc(CN(C)CC(=O)Nc2ccc([N+](=O)[O-])cc2Cl)cc1 -13.8%
Cc1[nH]n(C2=NCCS2)c(=O)c1N=Nc1cccc(C(F)(F)F)c1 3.65%
Nn1c(SCC(=O)Nc2ccc3c(c2)OCO3)nnc1-c1cccc(Cl)c1 3.48%
O=C(N/N=C/c1ccc([N+](=O)[O-])o1)c1cc(-c2ccncc2)nc2ccccc12 1.36%
Cc1oc(C)c(C(=O)O)c1COc1ccc(C(=O)O)cc1 -4.18%
Cc1ccccc1-c1nnc2s/c(=C\c3ccc(N(C)C)cc3)c(=O)n12 -0.0103%
C=CCN1C(=O)C2C(C(=O)NC)C3(C)C=CC2(O3)C1C(=O)NCc1ccc(OC)cc1 (configuration not stated) 3.65%
Cc1cc(CNC(=O)c2cccc([N+](=O)[O-])c2)c2ccccc2n1 1.21%
CC(=O)Oc1ccc(/C=N/NC(=S)Nc2ccccc2)cc1 7.84%
COc1ccc(C(=O)C[n+]2ccccc2C)cc1 -5.61%
CNC(=S)N(Cc1ccc2c(c1)OCO2)C1CC(=O)N(c2ccc(F)cc2)C1=O (configuration not stated) -1.75%
Cc1cc(C)n2nc(C(=O)Nc3ccccc3N3CCOCC3)nc2n1 2.59%
O=C(NC1CCCCC1)C(c1ccncc1)N(C(=O)Cc1cccs1)c1ccccc1 (configuration not stated) 1.61%
COc1ccccc1-c1n[nH]c(=S)n1Cc1ccco1 2.63%
CCCn1nnnc1NC(=O)COc1ccc(Br)cc1 13.7%
O=C(Nc1cccc2[nH]ncc12)c1ccc(F)cc1 5.16%
COc1cc(C(=O)Nc2c(C)cc(C)cc2C)c([N+](=O)[O-])cc1OC 6.47%
